Paper PMC5515408
This is one part of the list. At the low end of the ranking, values are background and their order means little.

Each sequence was assayed against MAX:MAX (p21) (UniProt P61244-2) (assay: protein-binding microarray (anti-MAX antibody)). Conditions: PBM: 15 mM Tris-HCl pH 7.5, 100 mM KCl, 0.075% NP40, 7.5 mM beta-mercaptoethanol, 375 ng/ul BSA, 8 ng/ul poly(dA-dT):(dA-dT), 550 ng complex, 60 min, room …; high values mean tight binding; double strand, one strand shown; sequences stand for … in CCGGC…TTAATAGCTAAGATTACTATATCGACG.

Sequence | binding signal (log2 normalized fluorescence)
TGACACGTGGCG | 3.2
TTAATCGTGGTA | 1.43
TGAACAACAGTA | -0.42
TGATGATCGGTA | -0.0714
TGAACGAACGTA | -0.511
TGAAATTAAGTA | -0.987
TGAGCTAGGGTA | -1.35
TGATCAAGTGTA | 0.125
TGTCCCCTGGTA | -0.172
TGATCACATGTA | 3.15
TGAACACGGGTA | 1.98
TAAAACGTTGTA | 1.44
TGAACCTAGGTA | -0.72
TGATCAATCGTA | -0.843
TGAGTCTTCGTA | -1.19
TGACATTAGGTA | -0.00999
TGATACTACGTA | -0.713
TGAATTAAAGTA | -1.23
TGAATTGCTGTA | -0.174
TGACGGTTAGTA | -0.6
TGAAATTGTGTA | -0.422
TGAGAAGGCGTA | -1.12
TGAAAATGGGTA | -0.385
TGATGTCTAGTA | -0.236
TGATCGGCTGTA | -0.898

Sequence | binding signal (log2 normalized fluorescence)
TGACGCGTGATA | 3
TGAAATGGCGTA | -0.42
TGATGTACTGTA | -0.0626
TGAGAATTGGTA | -1.26
TGAACAATAGTA | -0.612
TGACGAGTTGTA | -0.0589
TGAGATAATGTA | -0.776
TGAACCTACGTA | -0.6
TGATCATGGGTA | 1.13
TGACGTAGCGTA | -0.893
TGACTTTGAGTA | -0.931
TGACTTCAGGTA | -0.497
TGAAACGGAGTA | -0.679
TGATGGGGGGTA | 2.21
TGACTACGCGTA | -0.0968
TGAGCAGCGGTA | -0.373
TGACCAGGCGTA | 0.344
TGATGACCGGTA | 0.0585
TGATCTATAGTA | -1.19
TGATTAAGCGTA | -1.07
TGATCCTTGGTA | -1.04
TGAAGCATGGTA | 3.01
TGATGCCACGTA | 0.847
TGATTTTCGGTA | -1.3
TGACTATAGGTA | -0.834

Sequence | binding signal (log2 normalized fluorescence)
TGACGCTATGTA | -0.607
TGATCTTAGGTA | -1.37
TGACCTACGGTA | -0.384
TGACCATCTGTA | 1.1
TGATAGTGCGTA | -0.183
TGAAGCTTGGTA | -0.716
TGACCGCAAGTA | 0.519
TGAGTGTGGGTA | 0.513
TGAGTTGTAGTA | -0.917
AGAGAACGATGT | 0.455
TGATGAGGGGTA | 0.293
TGATAGTAGGTA | -0.639
TGAAGGTACGTA | 0.00794
TGAACTCCCGTA | -0.698
TGATGTGTCGTA | 0.409
TGATAATAAGTA | -1.04
TGAAATACTGTA | -0.496
AGACAAGTGGTA | 1.55
TGAGGCACCGTA | -0.311
TGAAGGCATGTA | 1.91
TGACCTATCGTA | -0.652
TGAGCACGCGTA | 2.76
TGAAAACGTGTA | 2.54
TGAGAGAGAGTA | -1.35
TGATCGAGAGTA | -0.711

Sequence | binding signal (log2 normalized fluorescence)
TGAGCGTAAGTA | -0.712
TGATACTCCGTA | -1.1
TGAATTTCGGTA | -1.08
TGAGAATGGGTA | -0.483
TGAGAGGCTGTA | -0.773
TGACATTCGGTA | -0.00293
TGAATTTGCGTA | -0.801
TGAGGCCACGTA | 0.499
TGATGGCGAGTA | 0.28
TGATCGAGGGTA | -0.514
TGAGCCTTCGTA | -1.22
TGAGACATAGTA | -0.476
TGACACCTGGTC | 2.68
TGATCTCTTGTA | -1.02
TGATCGGCAGTA | -0.571
TGACTTTACGTA | -0.704
TGATCTGCCGTA | -0.964
TCACACGATGTA | 2.97
TGAGTGGACGTA | 0.0655
TGAGGAGTGGTA | 0.184
TGATACTCAGTA | -0.884
TGAATCTACGTA | -0.92
TGATGGTCAGTA | 0.532
TGACAAAGTGTA | -0.349
TGAATCTTTGTA | -1.08

Sequence | binding signal (log2 normalized fluorescence)
TGGCGCGTGGTA | 3.16
TGACGCCTGGTA | 0.771
TGAACTTACGTA | -0.392
TGATGTACCGTA | 0.189
TGAAAGACCGTA | -0.764
TGATACATAGTA | -0.533
ACCCAATAAGAA | 0.402
TGATCAATGGTA | -0.543
TGATTTTCTGTA | -1.41
TGACCGACTGTA | -0.209
TGATCCAAAGTA | -0.962
TGATGCCATGTA | 0.303
TGAAATGTTGTA | -0.219
TGACATCATGTA | 1.31
TGATTTTACGTA | -1.05
TGAGCATCAGTA | -0.609
TGACACGGGTAA | 2.05
TGATTTCCCGTA | -0.738
AATGCATTTTTT | 1.65
CACCACGTGGTA | 3.24
TGAGTAGACGTA | -0.937
TGACAGGACGTA | -0.168
TGTCACGGGGTA | 3.12
TGACAAAATGTA | -0.48
TGATCACGAGTA | 2.55

Sequence | binding signal (log2 normalized fluorescence)
TGACAAGTAGTA | -0.386
TAACACGTCGTA | 2.38
TGACGTTTCGTA | -0.518
TGACCAAAAGTA | -0.688
TGACACCCGGTA | 0.472
TGACTGAGGGTA | -0.612
TGAATTGCGGTA | -0.21
TGACGGAGAGTA | -0.87
TGACCATCAGTA | 0.3
TGAGCGACCGTA | -0.787
TGAGGAGAAGTA | -0.741
TGAAGCGTTGTA | 0.604
TGAGGAAGCGTA | -0.805
TGATCCAAGGTA | -0.618
TGACACGTAAGA | 0.949
TGACCTCGAGTA | 1.24
TGAAGTCGCGTA | -0.905
TGAACGCCCGTA | -0.102
TGATTGATTGTA | -0.978
TGAGGGACCGTA | -0.619
TGATAGTACGTA | -0.743
TGAGGGGTGGTA | 1.59
TGAAGGCGCGTA | -0.33
TGATGATGGGTA | -0.279
TGAAGGTAAGTA | -0.438

Sequence | binding signal (log2 normalized fluorescence)
TGAGTTCGAGTA | -1.16
TGATTCTCGGTA | -1.26
TGACGATATGTA | -0.374
TGAATTATGGTA | -0.391
CGACCCGTGCTA | 2.55
TGATAGATTGTA | -1.02
TGATCTCCCGTA | -0.927
TGAGGTGTCGTA | -0.401
TGAGTGGAGGTA | -0.11
TGACACCCAGTA | 0.202
TGAAGTCCCGTA | -0.659
TGATGAGCTGTA | -0.592
TGAATTAGAGTA | -1.12
TGAAAAAGCGTA | -0.28
TGAACGTCAGTA | -0.37
TGATAGATCGTA | -1.21
TGAGGGGATGTA | 0.406
TGATTTGCCGTA | -1.14
TGAGTCTGCGTA | -0.699
TGCCACGTGTTA | 3.28
TGATGGTTTGTA | 0.0544
TGACCCACAGTA | -0.0297
TGAACGTAAGTA | -0.377
TGACACGGCGTA | 0.815
TGACATGTGTTA | 3.03

Sequence | binding signal (log2 normalized fluorescence)
TGTCACGTGCTA | 3.15
TGAGTTCGCGTA | -0.997
AGACTCGTGGTA | 3.06
TGACACGTGCCC | 3.16
TGATTAAACGTA | -0.848
TGATCAGACGTA | -0.501
TGATTCGTGGTA | 0.256
TGACGCGATGTA | 0.367
TGATATAGCGTA | -0.899
TGATGAAATGTA | -0.711
TGAAGCTCCGTA | -0.756
TGAATGTTAGTA | 0.191
TGACAACTTGTA | -0.311
TGAGCCGGAGTA | -1.29
TCGAACGTGGTA | 2.47
TGAAGCCATGTA | 0.0355
TGAGCTCCGGTA | -0.975
TGCCGCGTGGTA | 3.21
TGATTTTATGTA | -1.25
TGAACAGCCGTA | -0.516
TGAGAGACGGTA | -0.752
TGAGGATTCGTA | -1.1
TGAGTAACAGTA | -1.09
TGAGATTCGGTA | -1.15
TGATCGCGGGTA | -0.275

Sequence | binding signal (log2 normalized fluorescence)
TGATCCCATGTA | 1.33
TGAGTGAATGTA | -0.414
TGAGCATGGGTA | 2.27
TAACACATGGTA | 3.13
TGACTCAATGTA | -0.364
TGAGTATCGGTA | -1.27
TGAATACAAGTA | -0.759
TGACTAACAGTA | -0.714
TTACACCAGGTA | 0.598
TGAGATTCTGTA | -1.05
TGATAATCAGTA | -0.534
TGAGCTGCGGTA | -0.646
TAACTCGTTGTA | 1.1
TGAGTAGGAGTA | -1.17
TGACACGTAAAA | 0.695
TGACCGAATGTA | 0.0274
TGACTGGCTGTA | -0.377
TGATGACATGTA | 0.574
TGACACGTGGTC | 3.21
TGAGGCGGGGTA | 0.948
TGATTGCCTGTA | -0.395
TGATATAGTGTA | -0.641
TGAGAATTAGTA | -1.24
TGAAGTGAGGTA | 0.0729
TGATACATGGTA | 0.557

Sequence | binding signal (log2 normalized fluorescence)
TGACAGTGAGTA | -0.256
TGATCCGCAGTA | -0.645
TGACATGCGGTA | 2.99
TGACACGTGGGG | 3.36
TCATACGTGGAA | 1.28
TGAGGGTCCGTA | -0.522
TGAGAAAGCGTA | -0.868
TGAACTTCAGTA | -0.481
TGATATCGCGTA | -0.66
TGAGGTATTGTA | -0.653
TGAAAAAAAGTA | -0.993
TGAACGTGTGTA | 2.45
TGATACCTGGTG | -0.298
TGACATTTGGTG | -0.316
TGATTCGTCGTA | -1.04
TGATGCCCGGTA | -0.331
TTCCACGTGGTA | 3.13
TGCCACGTTGTA | 3.09
TGAGATTCCGTA | -1.11
TGGCTCGTGGTA | 2.78
TGACTTGGTGTA | -0.513
TGAGTGAAGGTA | -0.419
TGACACGTGAGC | 3.09
TGAGTTTACGTA | -1.12
TGATTGTTCGTA | -0.852

Sequence | binding signal (log2 normalized fluorescence)
TGATCGCAGGTA | -0.611
TGAACCCTCGTA | 0.0153
TGAGCGGATGTA | -0.552
TGATGGTGAGTA | 0.159
TGAGTAATAGTA | -1.2
TCGATCTTGTTC | -1.23
TGACTATATGTA | -0.484
TGATCTCTGGTA | -1.24
CGACACGTCGTA | 2.07
TGAGAGAAGGTA | -0.88
TGAAAAACGGTA | -0.472
TTACACATGGTA | 3.16
TGACCTGCGGTA | 0.226
TGACGCCCTGTA | -0.163
TGACACGTGACG | 3.23
TGACCCCGCGTA | 0.0878
TGACTTCACGTA | 0.108
TGATCAACAGTA | -0.433
TGAATTCTGGTA | -0.697
TGAGTCAATGTA | -0.791
AGAAACGTGTTA | 2.96
TGATAGTCGGTA | -1.03
TGAGCGTATGTA | 0.0171
TTACATGTGGAA | 3.25
TGCCATGCGGTA | 3.19
